Assay results reported in the supplement of paper PMC10126150.
Sequences with one replicate were seen in a single cluster, so their values are uncertain.

These sequences were tested on ATP (assay: switch fluorescence ratio, 500 uM ATP over buffer (Cy3 cluster intensity, sum of 5 cycles each) (fold (ratio)); higher = stronger signal-on switching upon ATP binding; sequences stand for … in TCGTCGGCAGCGTCAGATGTGTATAAGAGACAGTTTTTTTTTTTTTTTTTTTTTTTTT…TC). Conditions: aptamer strand: ATP DNA aptamer (quencher-CACCTGGGGGAGTATTGCGGAGGAAGG + anchor), 100 nM annealed; ATP concentration: 500 uM; one replicate.
Procedure, shortened: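 Cy3-labelled switching-strand clusters on a modified Illumina MiSeq flow-cell were annealed to 100 nM quencher-labelled ATP aptamer, imaged in selection buffer, then imaged after 15 min with 500 uM ATP at 22 °C. Five buffer/ATP cycles ran, with NaOH stripping and re-annealing between them. The fluorescence ratio is summed target-cycle over summed buffer-cycle Cy3 intensity per cluster, averaged per switch-domain sequence. Clusters outside 100-1000 RFU were excluded.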
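Further: ATP exposure 15 min at 22 °C before imaging.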

**Q.** With GGGTGTTTAC as the sequence, how does the switch fluorescence ratio read?
**A.** 0.99

**Q.** With TTTCTGCGCA as the sequence, how does the switch fluorescence ratio read?
**A.** 1.22

**Q.** With GAGTTACTAG as the sequence, how does the switch fluorescence ratio read?
**A.** 1.01

**Q.** TCCCAGCGAA was tested. Which switch fluorescence ratio did it give?
**A.** 1.82

**Q.** With TCATGAAGAA as the sequence, how does the switch fluorescence ratio read?
**A.** 1.4

**Q.** Which switch fluorescence ratio does the source give for ATAGGGCCC here?
**A.** 1.02

**Q.** How did the switch fluorescence ratio turn out when AGACAAATA was run?
**A.** 0.961

**Q.** TTGCCTGTTA was tested. Which switch fluorescence ratio did it give?
**A.** 1.03

**Q.** ACACGTTCAT was tested. Which switch fluorescence ratio did it give?
**A.** 1.03

**Q.** How did the switch fluorescence ratio turn out when TGCTGGTAAT was run?
**A.** 0.987

**Q.** Which switch fluorescence ratio does the source give for ACTTTACAAT here?
**A.** 1.26

**Q.** CTGATAGAGT was tested. Which switch fluorescence ratio did it give?
**A.** 0.964

**Q.** With TCTAAGCTTC as the sequence, how does the switch fluorescence ratio read?
**A.** 1.12

**Q.** Which switch fluorescence ratio does the source give for GGGGGTTCGA here?
**A.** 1.12

**Q.** TACCCCGTGC was tested. Which switch fluorescence ratio did it give?
**A.** 1.35

**Q.** With CGGGTACATT as the sequence, how does the switch fluorescence ratio read?
**A.** 1.01

**Q.** With CATTCTTGTT as the sequence, how does the switch fluorescence ratio read?
**A.** 1.03

**Q.** With CGACTTAAGC as the sequence, how does the switch fluorescence ratio read?
**A.** 1.08

**Q.** How did the switch fluorescence ratio turn out when GATCCCGAT was run?
**A.** 1.01

**Q.** How did the switch fluorescence ratio turn out when AGCGACTTGA was run?
**A.** 0.982

**Q.** For GAAAGAATGA, which switch fluorescence ratio is on record?
**A.** 1

**Q.** How did the switch fluorescence ratio turn out when GGCGCCGGGA was run?
**A.** 0.948

**Q.** How did the switch fluorescence ratio turn out when CGTTACGGT was run?
**A.** 0.985

**Q.** For TGAGCCGACT, which switch fluorescence ratio is on record?
**A.** 1.02

**Q.** Which switch fluorescence ratio does the source give for AGCCGGCATG here?
**A.** 0.991

**Q.** For GAGGGTCGTT, which switch fluorescence ratio is on record?
**A.** 1.05

**Q.** For TCCGCGCCTA, which switch fluorescence ratio is on record?
**A.** 1.31

**Q.** For CCAATTCTTT, which switch fluorescence ratio is on record?
**A.** 0.963

**Q.** For AGCTACGATC, which switch fluorescence ratio is on record?
**A.** 1.11

**Q.** Which switch fluorescence ratio does the source give for TAAAGCGACC here?
**A.** 1.37

**Q.** For GACTGGTCGT, which switch fluorescence ratio is on record?
**A.** 1

**Q.** For TGTAATTCCA, which switch fluorescence ratio is on record?
**A.** 1

**Q.** CAGTGTACTA was tested. Which switch fluorescence ratio did it give?
**A.** 1.1

**Q.** Which switch fluorescence ratio does the source give for GGTTGCCCAA here?
**A.** 1.18

**Q.** For TTCAGTCTAG, which switch fluorescence ratio is on record?
**A.** 1.06

**Q.** TTACAGGCTA was tested. Which switch fluorescence ratio did it give?
**A.** 1.01

**Q.** TAGGGCCGCG was tested. Which switch fluorescence ratio did it give?
**A.** 1.02

**Q.** Which switch fluorescence ratio does the source give for CCGATTAGTT here?
**A.** 1.09

**Q.** For GGAGTTGGCT, which switch fluorescence ratio is on record?
**A.** 0.956

**Q.** For TGTGGGATCC, which switch fluorescence ratio is on record?
**A.** 0.995

**Q.** With GTTCACCCCG as the sequence, how does the switch fluorescence ratio read?
**A.** 1.31

**Q.** How did the switch fluorescence ratio turn out when TACTGTCAGT was run?
**A.** 1.01

**Q.** How did the switch fluorescence ratio turn out when TTCTGATTTC was run?
**A.** 1.06

**Q.** For GTGTGACTT, which switch fluorescence ratio is on record?
**A.** 1

**Q.** CTCGAAGGCA was tested. Which switch fluorescence ratio did it give?
**A.** 1.04

**Q.** With TCTCGATGTG as the sequence, how does the switch fluorescence ratio read?
**A.** 0.96

**Q.** TCCTTTGAGA was tested. Which switch fluorescence ratio did it give?
**A.** 1.02

**Q.** With CACGTTTTAC as the sequence, how does the switch fluorescence ratio read?
**A.** 1.3

**Q.** TCGTATAGCT was tested. Which switch fluorescence ratio did it give?
**A.** 1.01

**Q.** How did the switch fluorescence ratio turn out when TTTTGTGACC was run?
**A.** 1.02

**Q.** TTGCGCAGTT was tested. Which switch fluorescence ratio did it give?
**A.** 1.03

**Q.** How did the switch fluorescence ratio turn out when GTGCGAGGCT was run?
**A.** 0.992

**Q.** How did the switch fluorescence ratio turn out when GGTCATGGCT was run?
**A.** 0.972

**Q.** Which switch fluorescence ratio does the source give for TGCGAGCGCG here?
**A.** 1

**Q.** Which switch fluorescence ratio does the source give for CGATTTTT here?
**A.** 0.99

**Q.** With CCTATTAGGG as the sequence, how does the switch fluorescence ratio read?
**A.** 0.989

**Q.** For CTGCGCTGGG, which switch fluorescence ratio is on record?
**A.** 1.15

**Q.** With TGCAGATGGT as the sequence, how does the switch fluorescence ratio read?
**A.** 0.998

**Q.** GTAAAACGTG was tested. Which switch fluorescence ratio did it give?
**A.** 0.967

**Q.** GTAGCTCGGA was tested. Which switch fluorescence ratio did it give?
**A.** 1.05

**Q.** How did the switch fluorescence ratio turn out when GATTAGCGGT was run?
**A.** 1.01

**Q.** For TTTGAGGTTC, which switch fluorescence ratio is on record?
**A.** 1.01

**Q.** Which switch fluorescence ratio does the source give for TATTATTTAT here?
**A.** 0.985

**Q.** For CCTAACGTGA, which switch fluorescence ratio is on record?
**A.** 2.32

**Q.** With CGGAGTAGTG as the sequence, how does the switch fluorescence ratio read?
**A.** 1.08

**Q.** CATCTACAGG was tested. Which switch fluorescence ratio did it give?
**A.** 1.03

**Q.** CGACTTATGA was tested. Which switch fluorescence ratio did it give?
**A.** 1.03

**Q.** Which switch fluorescence ratio does the source give for AAGACAGCGT here?
**A.** 0.958

**Q.** For CCGGGAATCC, which switch fluorescence ratio is on record?
**A.** 1.46

**Q.** AATGCGCCCA was tested. Which switch fluorescence ratio did it give?
**A.** 1.02

**Q.** How did the switch fluorescence ratio turn out when ACGTTAAATC was run?
**A.** 1.08

**Q.** How did the switch fluorescence ratio turn out when CAATCCTGGT was run?
**A.** 0.974

**Q.** With GAGGGCCCTG as the sequence, how does the switch fluorescence ratio read?
**A.** 1.07

**Q.** Which switch fluorescence ratio does the source give for TACTTACCA here?
**A.** 1.24

**Q.** Which switch fluorescence ratio does the source give for GGAGGGGTCT here?
**A.** 1.01

**Q.** For GACTCTTCAA, which switch fluorescence ratio is on record?
**A.** 1.08

**Q.** Which switch fluorescence ratio does the source give for GCGTTATGTT here?
**A.** 1.02

**Q.** How did the switch fluorescence ratio turn out when ATATGCCAAT was run?
**A.** 1.03

**Q.** For TCCCCGGCAC, which switch fluorescence ratio is on record?
**A.** 1.02

**Q.** With TTTATACGAT as the sequence, how does the switch fluorescence ratio read?
**A.** 0.984

**Q.** For GGACGCTATT, which switch fluorescence ratio is on record?
**A.** 1.59

**Q.** Which switch fluorescence ratio does the source give for AGCCTACATG here?
**A.** 0.97

**Q.** For CTCTTTGTCC, which switch fluorescence ratio is on record?
**A.** 1.03

**Q.** How did the switch fluorescence ratio turn out when TACCTCGGTG was run?
**A.** 1.04

**Q.** CCTAAACCTA was tested. Which switch fluorescence ratio did it give?
**A.** 1.05
